# Source: publication PMC4336329 (PLoS ONE, 2015)
# The campaign covered roughly 310,000 compounds. About 2,200 (0.71%) showed an effect of 50% or more. Effects have a minus sign here. The list shows a part of the results.
# Target: human ether-à-go-go-related gene (hERG) potassium channel (human, UniProt Q12809)
# Experiment: primary screen, population patch clamp on CHO cells stably expressing hERG
# human ether-à-go-go-related gene (hERG) potassium channel, sequence (Q12809 whole entry, looked up): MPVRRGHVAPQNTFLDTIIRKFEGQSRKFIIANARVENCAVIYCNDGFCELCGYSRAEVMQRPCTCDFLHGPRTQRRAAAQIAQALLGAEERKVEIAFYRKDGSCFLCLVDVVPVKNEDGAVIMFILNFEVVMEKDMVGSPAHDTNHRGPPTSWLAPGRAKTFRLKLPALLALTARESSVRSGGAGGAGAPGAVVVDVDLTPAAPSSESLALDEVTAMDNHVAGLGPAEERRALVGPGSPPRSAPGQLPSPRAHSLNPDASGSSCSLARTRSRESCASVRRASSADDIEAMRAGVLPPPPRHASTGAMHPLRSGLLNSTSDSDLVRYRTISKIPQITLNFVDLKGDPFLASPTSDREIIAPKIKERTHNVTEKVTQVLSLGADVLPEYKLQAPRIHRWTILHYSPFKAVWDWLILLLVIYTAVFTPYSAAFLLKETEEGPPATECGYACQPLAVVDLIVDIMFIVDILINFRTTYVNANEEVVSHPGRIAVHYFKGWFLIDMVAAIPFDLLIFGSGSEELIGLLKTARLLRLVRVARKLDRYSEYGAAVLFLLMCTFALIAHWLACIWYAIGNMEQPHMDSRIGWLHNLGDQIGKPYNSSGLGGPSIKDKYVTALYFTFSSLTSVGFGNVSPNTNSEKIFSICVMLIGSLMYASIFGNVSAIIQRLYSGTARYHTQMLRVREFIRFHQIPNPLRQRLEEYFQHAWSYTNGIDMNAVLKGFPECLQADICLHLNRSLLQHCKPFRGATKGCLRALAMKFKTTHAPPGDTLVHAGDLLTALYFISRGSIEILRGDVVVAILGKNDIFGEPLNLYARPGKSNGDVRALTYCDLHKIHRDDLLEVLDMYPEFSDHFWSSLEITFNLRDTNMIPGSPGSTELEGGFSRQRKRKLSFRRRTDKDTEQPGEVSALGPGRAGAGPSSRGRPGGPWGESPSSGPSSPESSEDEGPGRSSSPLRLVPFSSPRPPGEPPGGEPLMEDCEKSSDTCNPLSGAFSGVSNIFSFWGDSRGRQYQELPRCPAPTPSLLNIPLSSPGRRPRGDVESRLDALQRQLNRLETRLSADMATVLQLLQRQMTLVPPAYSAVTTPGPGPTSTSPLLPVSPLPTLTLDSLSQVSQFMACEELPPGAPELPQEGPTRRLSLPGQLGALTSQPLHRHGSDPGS
row,Compound,"hERG current change (%, negative = inhibition) at 1uM"
1,CN(CC(=O)Nc1cccc(F)c1)C(=O)/C=C/c1cc(Br)ccc1OC(F)F,-3.68%
2,O=C(NCC(=O)N(Cc1ccccc1)C(C(=O)NCC1CCCO1)c1ccccc1)c1ccco1 (stereo not drawn),6.15%
3,COc1ccc(CCC(=O)NCc2ccco2)cc1,2.07%
4,Cc1cnc(C(=O)OCc2c(C)cc(C(C)(C)C)cc2C)cn1,14.4%
5,O=C1CN(C(=O)COC(=O)CCC(=O)c2ccc3c(c2)OCCO3)c2ccccc2N1,-11.1%
6,CC(=O)N1c2ccccc2C(=O)OC1c1cccnc1 (stereo not drawn),20.6%
7,CC(=O)N1c2ccc(S(=O)(=O)N(C)CC(=O)NCc3ccccc3)cc2CC1C (stereo not drawn),13.3%
8,CCN1C(=O)c2cccc3c(S(=O)(=O)NCc4ccccn4)ccc1c23,-10.5%
9,CC(=O)N1c2ccc(S(=O)(=O)N3c4ccccc4CC3C)cc2CC1C (stereo not drawn),7.91%
10,O=S(=O)(Nc1ccc(-c2csc(-c3ccccc3)n2)cc1)c1ccccc1,-4.45%
11,CSCC[C@H](NC(=O)Cc1c(C)c2c(cc(C)c3c(C)c(C)oc32)oc1=O)C(=O)O,9.6%
12,O=C(Nc1nnc(C2=COCCO2)o1)c1ccc([N+](=O)[O-])cc1,15.7%
13,O=C(CSc1ccc(Cl)cc1)N1CCCC1,2.74%
14,CCC(C)(C)n1nnnc1CN(Cc1ccc(Cl)cc1)Cc1ccco1,2%
15,Cc1ccc(C(=O)NCCNC(=O)c2ccc(C)o2)o1,5.42%
16,CC1(C)CC(=O)C2=C(C1)N(CC1CCCO1)C(=O)NC2(C(F)(F)F)C(F)(F)F (stereo not drawn),0.219%
17,CCCC(=O)Nc1sc(-c2ccccc2)c(-c2ccccc2)c1C(=O)O,13.8%
18,O=C(Cn1cncn1)NCc1cccc(OC(F)F)c1,8.71%
19,O=C(Cc1cccs1)OCC(=O)c1ccco1,-0.558%
20,Cc1ccc(/C=C/C(=O)NCc2cccs2)cc1,15.3%
21,CCn1c(-c2cccn(Cc3ccccc3)c2=O)n[nH]c1=S,23.4%
22,O=S(=O)(c1ccc2ccccc2c1)N1CCCCC1,-6.42%
23,CCc1ccc(/C(C)=N/NC(=O)CNC(=O)/C=C/c2ccccc2OC)cc1,12.6%

row,Compound,"hERG current change (%, negative = inhibition) at 1uM"
1,COc1ccccc1OCCC(=O)OCC(=O)NC(=O)NC(C)(C)C,3.66%
2,Cc1nn(CC(=O)NC2C(=O)N3C(C(=O)O)=C(CSc4nnnn4C)CSC23)cc1Br (stereo not drawn),5.33%
3,COc1ccccc1N(C(=O)c1ccco1)C(C(=O)NC1CCCC1)c1ccncc1 (stereo not drawn),7.32%
4,NC1=[NH+]C2CS(=O)(=O)CC2S1.[Br-] (stereo not drawn),-16.4%
5,CCOC(=O)C(C)On1c(-c2ccc(Cl)cc2)nc2ccc([N+](=O)[O-])cc21 (stereo not drawn),0.757%
6,CCn1nnnc1SCC(=O)c1ccc2c(c1)OCCO2,22.6%
7,CCN(CC)CCNc1nc2ccccc2n1C,9.38%
8,Cc1ccccc1CN1C(=O)CS/C1=N/N=C/c1ccco1,5.15%
9,CCOc1ccc(OCC)c(NC(=O)Cn2c(C)nc3ccccc3c2=O)c1,-0.775%
10,O=C(c1ccc(Cl)c([N+](=O)[O-])c1)N1CCN(S(=O)(=O)c2ccc(Cl)cc2)CC1,2.32%
11,COc1ccc(C(O)c2ccccc2OP(=O)(N(C)C)N(C)C)cc1 (stereo not drawn),2.72%
12,CC(C)(O)C#Cc1ccc(C(=O)NCCc2ccc(S(N)(=O)=O)cc2)cc1,10.7%
13,O=C(c1ccco1)N1CCN(C(=O)c2ccc(COc3ccc4c(c3)CCC4)o2)CC1,-21%
14,CCOc1cc(C(=O)N(C)Cc2cc3ccccc3[nH]c2=O)cc(OCC)c1OCC,5.23%
15,Cc1ccc(C2NC(=O)c3c(sc4c3CCN(C)C4)N2)s1 (stereo not drawn),-1.01%
16,O=C(Nc1cccc(NC(=O)c2ccccc2Cl)c1)c1ccc([N+](=O)[O-])o1,9.67%
17,O=C1c2ccccc2NC(c2ccco2)N1/N=C/c1ccco1 (stereo not drawn),12.6%
18,COc1cccc(CNCCSc2nnnn2C)c1.Cl,-6.84%
19,CN(CC(=O)Nc1ccccc1C(F)(F)F)C(=O)c1cc(Cl)nc2ccccc12,10.8%
20,Cc1nnc(SCC(=O)Nc2ccc(Oc3ccccc3)cc2)n1N,12.9%
21,CSc1ncccc1C(=O)N(C)CC(=O)Nc1cccc(F)c1,13.1%
22,CC1CCN(c2c(NCC3CCC(C(=O)NCCCc4ccccc4)CC3)c(=O)c2=O)CC1 (stereo not drawn),8.36%
23,Cl.O=C(CN1CCOCC1)NCc1cc([N+](=O)[O-])ccc1O,11.5%

row,Compound,"hERG current change (%, negative = inhibition) at 1uM"
1,O=[N+]([O-])c1ccc(Nc2nc(N3CCOCC3)nc(N3CCOCC3)n2)cc1,8.29%
2,CCc1ccc(CNCc2cccs2)cc1.Cl,-5.46%
3,O=C(O)C(Cc1ccccc1)n1cccc1 (stereo not drawn),10.1%
4,Clc1nc(Nc2ccccc2)nc(Nc2ccccc2)n1,3.76%
5,O=C(CCc1nc(-c2ccccc2)no1)NCC1CCCO1 (stereo not drawn),11.9%
6,O=C(Cc1n[nH]c(=O)c2ccccc12)OCC(=O)c1ccc(F)cc1,-8.17%
7,Cc1ccc(-c2nc3cccnc3s2)cc1NC(=O)c1ccco1,-1.2%
8,Fc1ccc2nc(Nc3nc4cc5c(cc4s3)OCCO5)sc2c1,11.9%
9,Cc1cc(/C=C(\C#N)c2nc3ccccc3[nH]2)c(C)n1C,13.5%
10,Cc1cccc(N2CCCn3c2nc2c3c(=O)[nH]c(=O)n2C)c1,2.54%
11,C/C(=N\NC(=O)CNC(=O)C(c1ccccc1)c1ccccc1)c1ccc(C(C)(C)C)cc1,2.98%
12,CCNC(=O)NC(=O)C(C)Sc1nc2ccccc2c(=O)n1-c1cccnc1 (stereo not drawn),16.1%
13,COCCOC1CCN(C(=O)C2CCC(=O)N(Cc3cccc(F)c3)C2)CC1 (stereo not drawn),14.2%
14,CCCc1nc2ccccc2c(=O)n1/N=C/c1c(C)[nH]n(-c2ccc(C)cc2)c1=O,0.959%
15,O=C(Nc1nc(=S)ss1)c1ccc(Cl)cc1Cl,9.74%
16,Cc1ccc(C)c(Cn2nnc3c(=O)[nH]c(C4CCCN(C(=O)c5cccs5)C4)nc32)c1 (stereo not drawn),11.1%
17,CS(=O)(=O)NCc1ccc(C(=O)O)cc1,19.6%
18,COC(=O)N/N=C1\CCCc2c(C)cc(C)cc21,5.03%
19,O=C([O-])CSc1cccc2cccnc12.[Na+],6.21%
20,Cl.c1ccc(CSc2nnc([C@@H]3CCCN3)o2)cc1,1.25%
21,FC(F)(F)c1ccc(NC(=S)NC2CCCCC2)cc1,2.6%
22,O=C(COC(=O)c1ccccc1S(=O)(=O)N1CCCCC1)NCC(F)(F)F,-8.44%
23,CCCC[C@@H]1CNC(=O)C(=O)N1CC(C)(C)C,9.57%

row,Compound,"hERG current change (%, negative = inhibition) at 1uM"
1,COC(=O)CC1C(=O)NCCN1C(=O)Nc1ccc(Cl)cc1 (stereo not drawn),15.8%
2,O=S(=O)(NCCOc1cccc2cccnc12)c1ccc(F)cc1,10.7%
3,CCOC(=O)c1ccc(S(=O)(=O)N2CCN(C3CCCC3)CC2)cc1,14.7%
4,O=S(=O)(c1ccccc1)N1CCN(C(=S)Nc2ccccc2Cl)CC1,11.2%
5,Cc1cc(C)cc(NC(=O)CCN2CCOCC2)c1,7.44%
6,CCc1cccc(OCCCCNCCO)c1.O=C(O)C(=O)O,14.5%
7,Cc1ccc(S(=O)(=O)N(CCC#N)C2CCCCC2)c2nsnc12,11.2%
8,O=S(=O)(/N=C(/Nc1cccc2ccccc12)c1ccc(F)cc1)c1ccccc1,7.06%
9,NNC(=O)Cn1c(SCc2ccccc2)nc2ccccc21,5.91%
10,Cc1cccc(Nc2nc(-c3ccc(O)c(O)c3)cs2)n1,12.7%
11,COc1ccc2[nH]c3c(=O)n(CCCCC(=O)NCCN4CCCC4)c(=S)[nH]c3c2c1,7.92%
12,S=c1[nH]ncn1/N=C/c1cccc(Oc2ccccc2)c1,10.7%
13,COc1cc(NC(=O)CCc2nnc3ccc(N4CCN(C)CC4)nn23)cc(OC)c1,30%
14,Cc1c(C(=O)OCC2CCCO2)[nH]c2c1C(=O)CC(c1ccc(N(C)C)cc1)C2 (stereo not drawn),-2.54%
15,O=C(CSc1nc(O)cc(=O)[nH]1)N1c2ccccc2Sc2ccccc21,8.31%
16,CN1CCN(C(=O)Nc2ccc3c(c2)N(C)C(=O)c2ccccc2S3)CC1,7.91%
17,Cc1ccc(SCC(=O)N2CCN(c3ccccn3)CC2)cc1,8.43%
18,O=C1CCCN1CCCNc1ncnc2c1[nH]c1ccc(Cl)cc12,-18%
19,CCOc1ncccc1C(=O)OCC(=O)Nc1cc(S(=O)(=O)N(CC)CC)ccc1C,-10.5%
20,O=C(O)CCC(=O)N1N=C(c2c(-c3ccccc3)c3cc(Cl)ccc3[nH]c2=O)CC1c1ccco1 (stereo not drawn),10.7%
21,COc1cc(CNCCO)cc(Br)c1OCc1ccccc1Cl.Cl,20.4%
